{"source": "the supplement of paper PMC8728848", "binders": {"B1": {"name": "Gal 7 (Canis lupus) (protein)", "chain": "MAGSSNVPHKTSLPEGIRVGTVMRIRGVVPNKAGRFYVNLLCGEAPGSEAALHFNPRLDESTVVFNTLEQGAWGREERGTGIPFQRGQPFDVLLIATDEGFKAVVGDSEYHHFRYRIPPARVRLLEVGGDLQLESVSVF"}}, "experiment_in_all_cases": "glycan array binding signal (z-score within array); higher = stronger binding", "settings_in_all_cases": "glycan notation: IUPAC condensed, linker removed", "key": {"[1]": {"target": "Fuc(a1-2)[GalNAc(a1-3)]Gal(b1-4)GlcNAc(b1-3)GalNAc", "summary_of_the_method": "(§1)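 From the Consortium for Functional Glycomics database, 3228 arrays were curated, keeping only those whose protein sequence was available. Binding is given as a within-array Z-score averaged across arrays sharing a protein sequence and across linkers. Negative Z-scores can be read as non-binding.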"}, "[2]": {"target": "Fuc(a1-2)[GalNAc(a1-3)]Gal(b1-4)[Fuc(a1-3)]GlcNAc", "summary_of_the_method": "as §1"}, "[3]": {"target": "Fuc(a1-2)[GalNAc(a1-3)]Gal(b1-4)[Fuc(a1-3)]GlcNAc(b1-3)GalNAc", "summary_of_the_method": "as §1"}, "[4]": {"target": "Fuc(a1-2)[GalNAc(a1-4)]Gal(b1-4)GlcNAc", "summary_of_the_method": "as §1"}, "[5]": {"target": "Fuc(a1-2)[GalNAc(b1-3)]Gal", "summary_of_the_method": "as §1"}, "Fuc(a1-3)GlcNAc": {"target": "Fuc(a1-3)GlcNAc", "summary_of_the_method": "as §1"}, "[6]": {"target": "Fuc(a1-3)[Gal(b1-4)]Glc6S", "summary_of_the_method": "as §1"}, "[7]": {"target": "Fuc(a1-3)[Gal(b1-4)]GlcNAc", "summary_of_the_method": "as §1"}, "[8]": {"target": "Fuc(a1-3)[Gal(b1-4)]GlcNAc(b1-2)Man(a1-3)[Fuc(a1-3)[Gal(b1-4)]GlcNAc(b1-2)Man(a1-6)]Man(b1-4)GlcNAc(b1-4)GlcNAc", "summary_of_the_method": "as §1"}, "[9]": {"target": "Fuc(a1-3)[Gal(b1-4)]GlcNAc(b1-2)Man(a1-3)[Fuc(a1-3)[Gal(b1-4)]GlcNAc(b1-2)Man(a1-6)]Man(b1-4)GlcNAc(b1-4)[Fuc(a1-6)]GlcNAc", "summary_of_the_method": "as §1"}, "[10]": {"target": "Fuc(a1-3)[Gal(b1-4)]GlcNAc(b1-3)Gal(b1-3)[Fuc(a1-4)]GlcNAc", "summary_of_the_method": "as §1"}, "[11]": {"target": "Fuc(a1-3)[Gal(b1-4)]GlcNAc(b1-3)GalNAc", "summary_of_the_method": "as §1"}, "[12]": {"target": "Fuc(a1-3)[Gal(b1-4)]GlcNAc(b1-4)Gal(b1-4)[Fuc(a1-3)]GlcNAc", "summary_of_the_method": "as §1"}, "[13]": {"target": "Fuc(a1-3)[Gal(b1-4)]GlcNAc(b1-4)Gal(b1-4)[Fuc(a1-3)]GlcNAc(b1-4)Gal(b1-4)[Fuc(a1-3)]GlcNAc", "summary_of_the_method": "as §1"}, "[14]": {"target": "Fuc(a1-3)[Gal(b1-4)]GlcNAc(b1-6)[Gal(b1-3)GlcNAc(b1-3)]Gal(b1-4)Glc", "summary_of_the_method": "as §1"}, "[15]": {"target": "Fuc(a1-3)[Gal(b1-4)]GlcNAc6S", "summary_of_the_method": "as §1"}, "[16]": {"target": "Fuc(a1-3)[Gal3S(b1-4)]GlcNAc", "summary_of_the_method": "as §1"}, "[17]": {"target": "Fuc(a1-3)[Gal3S(b1-4)]GlcNAc6S", "summary_of_the_method": "as §1"}, "[18]": {"target": "Fuc(a1-3)[GalNAc(b1-4)]GlcNAc", "summary_of_the_method": "as §1"}, "Fuc(a1-4)GlcNAc": {"target": "Fuc(a1-4)GlcNAc", "summary_of_the_method": "as §1"}, "Fuc(b1-3)GlcNAc": {"target": "Fuc(b1-3)GlcNAc", "summary_of_the_method": "as §1"}, "Gal(a1-2)Gal": {"target": "Gal(a1-2)Gal", "summary_of_the_method": "as §1"}, "Gal(a1-3)Gal": {"target": "Gal(a1-3)Gal", "summary_of_the_method": "as §1"}, "Gal(a1-3)Gal(b1-3)GlcNAc": {"target": "Gal(a1-3)Gal(b1-3)GlcNAc", "summary_of_the_method": "as §1"}, "[19]": {"target": "Gal(a1-3)Gal(b1-3)GlcNAc(b1-2)Man(a1-3)[Gal(a1-3)Gal(b1-3)GlcNAc(b1-2)Man(a1-6)]Man(b1-4)GlcNAc(b1-4)GlcNAc", "summary_of_the_method": "as §1"}, "[20]": {"target": "Gal(a1-3)Gal(b1-3)GlcNAc(b1-3)GalNAc", "summary_of_the_method": "as §1"}, "[21]": {"target": "Gal(a1-3)Gal(b1-3)[Fuc(a1-4)]GlcNAc(b1-2)Man(a1-3)[Gal(a1-3)Gal(b1-3)[Fuc(a1-4)]GlcNAc(b1-2)Man(a1-6)]Man(b1-4)GlcNAc(b1-4)GlcNAc", "summary_of_the_method": "as §1"}, "Gal(a1-3)Gal(b1-4)Glc": {"target": "Gal(a1-3)Gal(b1-4)Glc", "summary_of_the_method": "as §1"}, "Gal(a1-3)Gal(b1-4)GlcNAc": {"target": "Gal(a1-3)Gal(b1-4)GlcNAc", "summary_of_the_method": "as §1"}, "[22]": {"target": "Gal(a1-3)Gal(b1-4)GlcNAc(b1-3)GalNAc", "summary_of_the_method": "as §1"}, "[23]": {"target": "Gal(a1-3)Gal(b1-4)[Fuc(a1-3)]GlcNAc", "summary_of_the_method": "as §1"}, "[24]": {"target": "Gal(a1-3)Gal(b1-4)[Fuc(a1-3)]GlcNAc(b1-2)Man(a1-3)[Gal(a1-3)Gal(b1-4)[Fuc(a1-3)]GlcNAc(b1-2)Man(a1-6)]Man(b1-4)GlcNAc(b1-4)GlcNAc", "summary_of_the_method": "as §1"}, "Gal(a1-3)GalNAc": {"target": "Gal(a1-3)GalNAc", "summary_of_the_method": "as §1"}, "[25]": {"target": "Gal(a1-3)[Gal(a1-4)]Gal(b1-4)GlcNAc", "summary_of_the_method": "as §1"}, "[26]": {"target": "Gal(a1-4)Gal(b1-3)GlcNAc(b1-2)Man(a1-3)[Gal(a1-4)Gal(b1-3)GlcNAc(b1-2)Man(a1-6)]Man(b1-4)GlcNAc(b1-4)GlcNAc", "summary_of_the_method": "as §1"}, "Gal(a1-4)Gal(b1-4)Glc": {"target": "Gal(a1-4)Gal(b1-4)Glc", "summary_of_the_method": "as §1"}, "Gal(a1-4)Gal(b1-4)GlcNAc": {"target": "Gal(a1-4)Gal(b1-4)GlcNAc", "summary_of_the_method": "as §1"}, "[27]": {"target": "Gal(a1-4)Gal(b1-4)GlcNAc(b1-2)Man(a1-3)[Gal(a1-4)Gal(b1-4)GlcNAc(b1-2)Man(a1-6)]Man(b1-4)GlcNAc(b1-4)GlcNAc", "summary_of_the_method": "as §1"}, "[28]": {"target": "Gal(a1-4)Gal(b1-4)GlcNAc(b1-3)Gal(b1-4)Glc", "summary_of_the_method": "as §1"}, "Gal(a1-4)GlcNAc": {"target": "Gal(a1-4)GlcNAc", "summary_of_the_method": "as §1"}, "Gal(a1-6)Glc": {"target": "Gal(a1-6)Glc", "summary_of_the_method": "as §1"}, "Gal(b1-2)Gal": {"target": "Gal(b1-2)Gal", "summary_of_the_method": "as §1"}, "Gal(b1-3)Gal": {"target": "Gal(b1-3)Gal", "summary_of_the_method": "as §1"}, "Gal(b1-3)Gal(b1-4)GlcNAc": {"target": "Gal(b1-3)Gal(b1-4)GlcNAc", "summary_of_the_method": "as §1"}, "[29]": {"target": "Gal(b1-3)Gal(b1-4)GlcNAc(b1-2)Man(a1-3)[Gal(b1-3)Gal(b1-4)GlcNAc(b1-2)Man(a1-6)]Man(b1-4)GlcNAc(b1-4)GlcNAc", "summary_of_the_method": "as §1"}}, "note": "Some of the results follow.", "data": [{"binder": "B1", "values": [{"measurement": "glycan array binding signal (z-score)", "setting": "[1]", "value": -0.183}, {"measurement": "glycan array binding signal (z-score)", "setting": "[2]", "value": -0.209}, {"measurement": "glycan array binding signal (z-score)", "setting": "[3]", "value": -0.164}, {"measurement": "glycan array binding signal (z-score)", "setting": "[4]", "value": -0.216}, {"measurement": "glycan array binding signal (z-score)", "setting": "[5]", "value": -0.219}, {"measurement": "glycan array binding signal (z-score)", "setting": "Fuc(a1-3)GlcNAc", "value": -0.217}, {"measurement": "glycan array binding signal (z-score)", "setting": "[6]", "value": -0.208}, {"measurement": "glycan array binding signal (z-score)", "setting": "[7]", "value": -0.204}, {"measurement": "glycan array binding signal (z-score)", "setting": "[8]", "value": -0.211}, {"measurement": "glycan array binding signal (z-score)", "setting": "[9]", "value": -0.18}, {"measurement": "glycan array binding signal (z-score)", "setting": "[10]", "value": -0.217}, {"measurement": "glycan array binding signal (z-score)", "setting": "[11]", "value": -0.21}, {"measurement": "glycan array binding signal (z-score)", "setting": "[12]", "value": -0.212}, {"measurement": "glycan array binding signal (z-score)", "setting": "[13]", "value": -0.191}, {"measurement": "glycan array binding signal (z-score)", "setting": "[14]", "value": -0.163}, {"measurement": "glycan array binding signal (z-score)", "setting": "[15]", "value": -0.197}, {"measurement": "glycan array binding signal (z-score)", "setting": "[16]", "value": -0.205}, {"measurement": "glycan array binding signal (z-score)", "setting": "[17]", "value": -0.209}, {"measurement": "glycan array binding signal (z-score)", "setting": "[18]", "value": -0.213}, {"measurement": "glycan array binding signal (z-score)", "setting": "Fuc(a1-4)GlcNAc", "value": -0.208}, {"measurement": "glycan array binding signal (z-score)", "setting": "Fuc(b1-3)GlcNAc", "value": -0.22}, {"measurement": "glycan array binding signal (z-score)", "setting": "Gal(a1-2)Gal", "value": -0.207}, {"measurement": "glycan array binding signal (z-score)", "setting": "Gal(a1-3)Gal", "value": -0.202}, {"measurement": "glycan array binding signal (z-score)", "setting": "Gal(a1-3)Gal(b1-3)GlcNAc", "value": -0.187}, {"measurement": "glycan array binding signal (z-score)", "setting": "[19]", "value": -0.19}, {"measurement": "glycan array binding signal (z-score)", "setting": "[20]", "value": -0.166}, {"measurement": "glycan array binding signal (z-score)", "setting": "[21]", "value": -0.196}, {"measurement": "glycan array binding signal (z-score)", "setting": "Gal(a1-3)Gal(b1-4)Glc", "value": -0.201}, {"measurement": "glycan array binding signal (z-score)", "setting": "Gal(a1-3)Gal(b1-4)GlcNAc", "value": -0.144}, {"measurement": "glycan array binding signal (z-score)", "setting": "[22]", "value": -0.204}, {"measurement": "glycan array binding signal (z-score)", "setting": "[23]", "value": -0.2}, {"measurement": "glycan array binding signal (z-score)", "setting": "[24]", "value": -0.194}, {"measurement": "glycan array binding signal (z-score)", "setting": "Gal(a1-3)GalNAc", "value": -0.213}, {"measurement": "glycan array binding signal (z-score)", "setting": "[25]", "value": -0.202}, {"measurement": "glycan array binding signal (z-score)", "setting": "[26]", "value": -0.208}, {"measurement": "glycan array binding signal (z-score)", "setting": "Gal(a1-4)Gal(b1-4)Glc", "value": -0.19}, {"measurement": "glycan array binding signal (z-score)", "setting": "Gal(a1-4)Gal(b1-4)GlcNAc", "value": -0.212}, {"measurement": "glycan array binding signal (z-score)", "setting": "[27]", "value": -0.147}, {"measurement": "glycan array binding signal (z-score)", "setting": "[28]", "value": 1.5}, {"measurement": "glycan array binding signal (z-score)", "setting": "Gal(a1-4)GlcNAc", "value": -0.211}, {"measurement": "glycan array binding signal (z-score)", "setting": "Gal(a1-6)Glc", "value": -0.204}, {"measurement": "glycan array binding signal (z-score)", "setting": "Gal(b1-2)Gal", "value": -0.214}, {"measurement": "glycan array binding signal (z-score)", "setting": "Gal(b1-3)Gal", "value": -0.205}, {"measurement": "glycan array binding signal (z-score)", "setting": "Gal(b1-3)Gal(b1-4)GlcNAc", "value": -0.115}, {"measurement": "glycan array binding signal (z-score)", "setting": "[29]", "value": 0.325}]}]}
